The other results are listed elsewhere or left out. Further columns of the screen follow, without active or inactive calls. The list favours compounds with an active or inconclusive main result. Potencies come from curve fits of mixed quality, noted in brackets.
Experiment: Cell-based coincidence reporter assay to measure PMP22 gene transcription in S16 Pmp22-F2sN cells - Confirmatory screen (AID 1508646)
Details: S16 Schwann cells Pmp22-F2sN, dual luciferase, 24 h
Summary of the method: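 Coincidence reporter read as sequential FLuc then NLuc luminescence (Nano-Glo Dual-Luciferase, 10 min each). Engineered S16 Pmp22-F2sN Schwann cells, 500-1,000 per well in DMEM/10% FBS, were exposed to compounds for 24 h, 37C.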

[1] = measured here: FLuc reporter channel
[2] = measured here: NLuc reporter channel
Tags describe the fitted curve by direction and shape.

| SMILES | AC50 [1] | AC50 [2] |
| --- | --- | --- |
| CCn1ccc2c(OCC(=O)Nc3ccccc3C(F)(F)F)cccc2c1=O | 30.6 µM [falling, single point] | 12.2 µM [falling, partial curve, poor fit] |
| CCCN(C(=O)c1cc2c(=O)n(CC)c3ccccc3c2s1)c1ccccc1F | 27.3 µM [falling, partial curve, poor fit] | 43.2 µM [falling, single point] |
| Cc1ccc(CNC(=O)Cn2c(=O)n(-c3cccc(Cl)c3)c(=O)c3sc4ccccc4c32)cc1 | 17.2 µM [falling, partial curve, poor fit] | 24.3 µM [falling, partial curve, poor fit] |
| COc1cccc(N2CCN(C(=O)c3ccc(CS(=O)c4cccc(Cl)c4)o3)CC2)c1 (stereo unspecified) | 1.93 µM [falling, full curve, poor fit] | 6.85 µM [falling, full curve, poor fit] |
| COc1ccc(N2CCN(CCCNC(=O)c3ccc4nc(Cc5ccccc5)oc4c3)CC2)cc1 | 34.3 µM [falling, partial curve, poor fit] | 30.6 µM [falling, partial curve] |
| Cc1ccc(NC(=O)CSc2ncc3c(n2)-c2ccccc2N(C)S3(=O)=O)c(Cl)c1 | 17.2 µM [falling, partial curve, poor fit] | 15.3 µM [falling, partial curve] |
| COc1ccc(Cl)cc1NC(=O)CSC1=Nc2ccccc2C2=NC(CCC(=O)NCc3ccco3)C(=O)N12 (stereo unspecified) | 13.7 µM [falling, partial curve, poor fit] | 10.9 µM [falling, partial curve, poor fit] |
| CCOC(=O)c1c(C)[nH]c(CCC(=O)NCCCN2CCN(c3cc(C)ccc3C)CC2)c1C | 21.7 µM [falling, partial curve] | 30.6 µM [falling, partial curve] |
| Cc1cccc(Nc2cc(C)nc(-n3nc(C)cc3C)n2)c1 | 10.9 µM [falling, full curve, poor fit] | 15.3 µM [falling, partial curve, poor fit] |
| Cc1ccc(S(=O)(=O)c2nnn3c2nc(NC2CCCCCC2)c2sccc23)cc1C | 13.7 µM [falling, partial curve] | 19.3 µM [falling, partial curve] |
| Cc1ccc(OCCSc2nc3ccc(NC(=O)COc4ccc(C)cc4)cc3s2)cc1 | 30.6 µM [falling, single point] | 34.3 µM [falling, single point] |
| COc1cccc(-c2cc(C(=O)Nc3cc(OC)c(OC)c(OC)c3)on2)c1 | 19.3 µM [falling, partial curve] | 17.2 µM [falling, partial curve] |
| Cc1nnc(SCC(=O)NCc2ccccc2Cl)c2nn(-c3ccccc3)c(C)c12 | 13.7 µM [falling, partial curve, poor fit] | 17.2 µM [falling, partial curve] |
| COc1ccc(OC)c(NC(=O)CSc2c3c(nc4ccccc24)CCCC3)c1 | 12.2 µM [falling, partial curve] | 12.2 µM [falling, partial curve] |
| COc1ccccc1CNc1nc2c(S(=O)(=O)c3ccc(C)c(C)c3)nnn2c2ccc(Cl)cc12 | 8.62 µM [falling, full curve] | 6.85 µM [falling, full curve] |
| CCOC(=O)c1c(NC(=O)c2ccc(S(=O)(=O)N3CCC(C)CC3)cc2)sc2c1CCN(C)C2 | 17.2 µM [falling, partial curve] | 19.3 µM [falling, partial curve] |
| CCC(=O)C1=C(c2cccc([N+](=O)[O-])c2)N(C(=O)CC)n2c(nnc2-c2ccccc2)S1 | 8.62 µM [falling, full curve] | 13.7 µM [falling, partial curve] |
| CCOC(=O)c1ccc(-c2ccc(/C=C(\C#N)C(=O)Nc3cccc(C)c3)o2)cc1 | 17.2 µM [falling, partial curve] | 17.2 µM [falling, partial curve] |

Source: PubChem BioAssay (NCATS)
